One assay has as its target Natalizumab (IgG4). Nature of the assay: SPR, Biacore 3000, CM5 chip, 25 C, Langmuir 1:1. A general note: Surface plasmon resonance follows binding to a sensor surface in real time, without labels.
Assay [1] deals with T1, IgG1 (column of Table 2: human IgG1-Fc or Cetuximab) (human).
T1 construct: It cannot be told whether the IgG1 column was measured with human IgG1-Fc or with Cetuximab; also called Cetuximab (IgG1)
Put plainly: SPR, Biacore 3000, CM5 chip, 25 C, Langmuir 1:1.

We go through seven molecules from patent US20190177376A1 (NAVIGO PROTEINS, published 2019).

Chain of Natalizumab (IgG4) (VH, as listed by the source, chain 1 of 2): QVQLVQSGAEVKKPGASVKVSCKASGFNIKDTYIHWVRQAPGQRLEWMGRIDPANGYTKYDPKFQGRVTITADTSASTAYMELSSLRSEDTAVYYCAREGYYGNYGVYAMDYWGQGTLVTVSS
Chain of Natalizumab (IgG4) (VL, as listed by the source, chain 2 of 2): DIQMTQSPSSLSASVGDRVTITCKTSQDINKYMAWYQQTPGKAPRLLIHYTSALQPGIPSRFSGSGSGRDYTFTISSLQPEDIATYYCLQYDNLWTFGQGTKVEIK

B1: cs25 (SEQ ID NO: 26) (designed binder)
chain: IAAKHDKDQQAAFYEILHLPNLTEDQRNAFIQSLRDDPSVSLEILAEAKKLNDAQAPKWSHPQFEK
notes: also called cs25-2
The term Kd denotes a measure of binding affinity in units of concentration. A higher Kd goes with lower affinity. Take B1: the values for the Kd (in the assay with Natalizumab (IgG4); in assay [1]) were 3.27 nM and 4.24 nM, respectively.

B2: cs74h2 (SEQ ID NO: 43) (designed binder)
chain: IAAKFDEAQQAAFYEILHLPNLTEEQRNAFIQSLRDDPSVSLEILGEAKKLNDAQAPPWSHPQFEK
Consider B2, for which the Kd with Natalizumab (IgG4) is 2.72 nM; in assay [1] it was 3.48 nM.

B3: cs47h4 (SEQ ID NO: 45) (designed binder)
chain: IAAKHDKDQQAAFYEILHLPNLTEEQRNAFIQSLRDDPSVSLEVLGEAQKLNDSQAPKWSHPQFEK
Take B3: the Kd with Natalizumab (IgG4) came out at 3.11 nM; in assay [1], 4.1 nM.

B4: cs74h1 (SEQ ID NO: 42) (designed binder)
chain: IAAKFDEAQQAAFYEILHLPNLTEDQRNAFIQSLRDDPSVSLEILGEAKKLNDAQAPPWSHPQFEK
Regarding B4, the Kd worked out at 1.2 nM with Natalizumab (IgG4) and 1.64 nM in assay [1].

B5: cs47h3 (SEQ ID NO: 44) (designed binder)
chain: IAAKHDKDQQAAFYEILHLPNLTEDQRNAFIQSLRDDPSVSLEVLGEAQKLNDSQAPKWSHPQFEK
On to B5, for which the Kd is 4.05 nM in the assay with Natalizumab (IgG4) and 4.78 nM in assay [1].

B6: cs27 (SEQ ID NO: 30) (designed binder)
chain: IAAKFDEAQQAAFYEILHLPNLTEEQRNAFIQSLRDDPSVSLEVLGEAQKLNDSQAPKWSHPQFEK
notes: also called cs27-2; 1I/11A/35R/42L
As to B6, the affinity with Natalizumab (IgG4), expressed as Kd, was 2.54 nM.

B7: cs14 (SEQ ID NO: 20) (designed binder)
chain: IAAKHDKDQQAAFYEILHLPNLTEDQRNAFIQSLRDDPSVSLEILGEAKKLNDAQAPPWSHPQFEK
notes: also called cs14-3; 1I/11A/28N/35R/42L
For B7, the Kd with Natalizumab (IgG4) worked out at 2.51 nM.
